Results: the supplement of paper PMC4604168 (melanoma cell lines)
The list shows a part of the results. Repeats are few or missing, and single values can be far off.

Columns and labels:
Assay in all cases: cell count relative to DMSO control; melanoma cells; higher = more viable cells
Details in all cases: library dose: low library concentration; 72 h
MZ2-MEL = test system: MZ2-MEL
MeWo = test system: MeWo
RPMI7951 = test system: RPMI7951
RVH-421 = test system: RVH-421
SkMel28 = test system: SkMel28
SkMel2 = test system: SkMel2
SkMel30 = test system: SkMel30
UACC62 = test system: UACC62
SkMel5 = test system: SkMel5
UACC257 = test system: UACC257
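Note: cell number obtained by counting DAPI-stained nuclei in high-throughput microscope images with image analysis software, screen run in 1,536-well plates.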

| Compound | cell count (MZ2-MEL) [%] | cell count (MeWo) [%] | cell count (RPMI7951) [%] | cell count (RVH-421) [%] | cell count (SkMel28) [%] | cell count (SkMel2) [%] | cell count (SkMel30) [%] | cell count (UACC62) [%] | cell count (SkMel5) [%] | cell count (UACC257) [%] |
| --- | --- | --- | --- | --- | --- | --- | --- | --- | --- | --- |
| CC1(C)CCC(c2ccc(Cl)cc2)=C(CN2CCN(c3ccc(C(=O)NS(=O)(=O)c4ccc(N[C@H](CCN5CCOCC5)CSc5ccccc5)c(S(=O)(=O)C(F)(F)F)c4)cc3)CC2)C1 + CC(=O)c1c(C)c2cnc(Nc3ccc(N4CCNCC4)cn3)nc2n(C2CCCC2)c1=O [palbociclib] (first compound 0.4 µM, partner dose 0.04 µM) | 79.7 | 62.2 | 47.5 | 71.4 | 60.3 | 68.5 | 55 | 77.3 |  |  |
| Cc1ccc(Nc2nccc(N(C)c3ccc4c(C)n(C)nc4c3)n2)cc1S(N)(=O)=O [Pazopanib] + CC(C)C[C@H](NC(=O)[C@H](Cc1ccccc1)NC(=O)c1cnccn1)B(O)O [Bortezomib] (first compound 0.4 µM, partner dose 0.001 µM) | 80.4 | 85.2 | 79.3 | 80.3 | 99.9 | 97.7 | 62.2 | 78.9 |  |  |
| Cc1ccc(Nc2nccc(N(C)c3ccc4c(C)n(C)nc4c3)n2)cc1S(N)(=O)=O [Pazopanib] + Cn1cc(/C=C2\C(=O)Nc3cccnc32)c2ccccc21 [GW441756] (first compound 0.4 µM, partner dose 0.4 µM) | 82.1 | 103 | 95.5 | 126 | 84.6 | 106 | 68.4 | 114 | 84.2 | 77.3 |
| CC1(C)CCC(c2ccc(Cl)cc2)=C(CN2CCN(c3ccc(C(=O)NS(=O)(=O)c4ccc(N[C@H](CCN5CCOCC5)CSc5ccccc5)c(S(=O)(=O)C(F)(F)F)c4)cc3)CC2)C1 + CC1(C)NC(=O)N(c2ccc([N+](=O)[O-])c(C(F)(F)F)c2)C1=O [nilutamide] (first compound 0.4 µM, partner dose 1 µM) | 92.2 | 91.1 | 66.4 | 76.8 | 83.1 | 89 | 70.8 | 92.7 | 64 | 77.8 |
| O=C(/C=C/c1cccnc1)NCCCCC1CCN(C(=O)c2ccccc2)CC1 + CC1(C)NC(=O)N(c2ccc([N+](=O)[O-])c(C(F)(F)F)c2)C1=O [nilutamide] (first compound 0.01 µM, partner dose 1 µM) | 46.4 | 92.6 | 102 | 43.8 | 88.7 | 45.2 | 77.6 | 97.5 | 87 | 103 |
| Cc1ccc(Nc2nccc(N(C)c3ccc4c(C)n(C)nc4c3)n2)cc1S(N)(=O)=O [Pazopanib] + CS(=O)(=O)c1ccc(C(=O)Nc2ccc(Cl)c(-c3ccccn3)c2)c(Cl)c1 [vismodegib] (first compound 0.4 µM, partner dose 1 µM) | 71.5 | 110 | 89 | 88.4 | 95.1 | 93.7 | 73.6 | 98.5 |  |  |
| Cc1ccc(Nc2nccc(N(C)c3ccc4c(C)n(C)nc4c3)n2)cc1S(N)(=O)=O [Pazopanib] + COc1cc2ncnc(Nc3ccc(Oc4ccccc4)cc3)c2cc1OC [SrcI1] (first compound 0.4 µM, partner dose 2 µM) | 79.5 | 114 | 101 | 111 | 83.2 | 94.3 | 76.4 | 112 | 96.8 | 96.5 |
| CC1(C)CCC(c2ccc(Cl)cc2)=C(CN2CCN(c3ccc(C(=O)NS(=O)(=O)c4ccc(N[C@H](CCN5CCOCC5)CSc5ccccc5)c(S(=O)(=O)C(F)(F)F)c4)cc3)CC2)C1 + NCC(=O)Nc1ccc(-n2nc(C(F)(F)F)cc2-c2ccc3c(ccc4ccccc43)c2)cc1 [OSU03012] (first compound 0.4 µM, partner dose 1 µM) | 86.9 | 36 | 73.8 | 64.5 | 69.4 | 49.3 | 17 | 104 | 42.3 | 62.9 |
| Cc1ccc(Nc2nccc(N(C)c3ccc4c(C)n(C)nc4c3)n2)cc1S(N)(=O)=O [Pazopanib] + COc1ccc(C2=N[C@@H](c3ccc(Cl)cc3)[C@@H](c3ccc(Cl)cc3)N2C(=O)N2CCNC(=O)C2)c(OC(C)C)c1 [Nutlin-3] (first compound 0.4 µM, partner dose 0.1 µM) | 69.6 | 92 | 76.8 | 82.1 | 96.8 | 103 | 82.8 | 85.4 |  |  |
| O=C(/C=C/c1cccnc1)NCCCCC1CCN(C(=O)c2ccccc2)CC1 + NC1(c2ccc(-c3nc4ccn5c(=O)[nH]nc5c4cc3-c3ccccc3)cc2)CCC1 [MK2206] (first compound 0.01 µM, partner dose 0.4 µM) | 36.1 | 83 | 110 | 44.9 | 79.5 | 55.5 | 85 | 91.8 |  |  |
| Cc1ccc(Nc2nccc(N(C)c3ccc4c(C)n(C)nc4c3)n2)cc1S(N)(=O)=O [Pazopanib] + COc1cc2c(Oc3ccc4[nH]c(C)cc4c3F)ncnc2cc1OCCCN1CCCC1 [cediranib] (first compound 0.4 µM, partner dose 0.4 µM) | 81.8 | 102 | 102 | 108 | 97 | 96.9 | 90.1 | 98.7 | 112 | 78.4 |
| Cc1ccc(Nc2nccc(N(C)c3ccc4c(C)n(C)nc4c3)n2)cc1S(N)(=O)=O [Pazopanib] + O=C1NC(=O)/C(=C/c2ccc(-c3ccc(F)cc3O)o2)S1 [AS252424] (first compound 0.4 µM, partner dose 1 µM) | 67.6 | 86 | 96.2 | 100 | 94.7 | 94.3 | 99.3 | 77.4 | 85.7 | 97.5 |
| Cc1ccc(Nc2nccc(N(C)c3ccc4c(C)n(C)nc4c3)n2)cc1S(N)(=O)=O [Pazopanib] + CN(C)S(=O)(=O)c1ccc2c(c1)/C(=C/c1cc3c([nH]1)CCCC3)C(=O)N2 [SU6656] (first compound 0.4 µM, partner dose 0.4 µM) | 93.8 | 90.5 | 80.6 | 89.8 | 78.7 | 102 | 77.5 | 104 | 100 | 84 |
| O=C(/C=C/c1cccnc1)NCCCCC1CCN(C(=O)c2ccccc2)CC1 + O=C(Nc1ccccc1)c1cc([N+](=O)[O-])ccc1Cl [GW9662] (first compound 0.01 µM, partner dose 2 µM) | 33.4 | 100 | 95.2 | 55.8 | 86.3 | 31.2 | 96.9 | 97.4 | 90.1 | 102 |
| CC1(C)CCC(c2ccc(Cl)cc2)=C(CN2CCN(c3ccc(C(=O)NS(=O)(=O)c4ccc(N[C@H](CCN5CCOCC5)CSc5ccccc5)c(S(=O)(=O)C(F)(F)F)c4)cc3)CC2)C1 + C[C@@H](N)c1ccc(C(=O)Nc2ccnc3[nH]ccc23)cc1 [RKI983] (first compound 0.4 µM, partner dose 0.4 µM) | 79.3 | 56.3 | 33 | 52.9 | 71.3 | 96.4 | 85.5 | 82.7 |  |  |
| O=C(/C=C/c1cccnc1)NCCCCC1CCN(C(=O)c2ccccc2)CC1 + c1cc(-c2cnn3cc(-c4ccc(OCCN5CCCCC5)cc4)cnc23)ccn1 [Dorsomorphin] (first compound 0.01 µM, partner dose 0.4 µM) | 44.1 | 96.4 | 108 | 52.9 | 92.3 | 54.3 | 102 | 94.8 | 94.9 | 96.6 |
| O=C(/C=C/c1cccnc1)NCCCCC1CCN(C(=O)c2ccccc2)CC1 + CS(=O)(=O)c1ccc(C(=O)Nc2ccc(Cl)c(-c3ccccn3)c2)c(Cl)c1 [vismodegib] (first compound 0.01 µM, partner dose 1 µM) | 40.9 | 108 | 110 | 67.3 | 93.4 | 23.8 | 97.9 | 80.8 |  |  |
| Cc1ccc(Nc2nccc(N(C)c3ccc4c(C)n(C)nc4c3)n2)cc1S(N)(=O)=O [Pazopanib] + CC(=O)O[C@@]12CO[C@@H]1C[C@H](O)[C@@]1(C)C(=O)[C@H](O)C3=C(C)[C@@H](OC(=O)[C@H](O)[C@@H](NC(=O)OC(C)(C)C)c4ccccc4)C[C@@](O)([C@@H](OC(=O)c4ccccc4)[C@H]21)C3(C)C [Docetaxel] (first compound 0.4 µM, partner dose 0.0001 µM) | 57.2 | 58.7 | 45.9 | 51.9 | 57 | 52.3 | 36.5 | 51.3 |  |  |
| O=C(/C=C/c1cccnc1)NCCCCC1CCN(C(=O)c2ccccc2)CC1 + NC(=O)c1ccc(N(C(N)=O)c2c(F)cccc2F)nc1-c1ccc(F)cc1F [VX702] (first compound 0.01 µM, partner dose 0.4 µM) | 47 | 95.9 | 109 | 45.4 | 78.5 | 33.9 | 108 | 89.8 |  |  |
